Data reported in the supplement of paper PMC3334620.
In all, about 33,000 sequences were measured (“E-score (-0.5 to 0.5)”: median about -0.043, highest 2% from about 0.37 on). The list shows a part of the results.

The sequences below were run against T1, Upc2 (UniProt Q12151) (assay: PBM E-score (8-mer binding enrichment) (E-score (-0.5 to 0.5)); higher = stronger / more preferred TF binding; most listed sequences are background and not binding sites). Settings: protein concentration: 200 nM; construct: GST-full length.
T1 sequence: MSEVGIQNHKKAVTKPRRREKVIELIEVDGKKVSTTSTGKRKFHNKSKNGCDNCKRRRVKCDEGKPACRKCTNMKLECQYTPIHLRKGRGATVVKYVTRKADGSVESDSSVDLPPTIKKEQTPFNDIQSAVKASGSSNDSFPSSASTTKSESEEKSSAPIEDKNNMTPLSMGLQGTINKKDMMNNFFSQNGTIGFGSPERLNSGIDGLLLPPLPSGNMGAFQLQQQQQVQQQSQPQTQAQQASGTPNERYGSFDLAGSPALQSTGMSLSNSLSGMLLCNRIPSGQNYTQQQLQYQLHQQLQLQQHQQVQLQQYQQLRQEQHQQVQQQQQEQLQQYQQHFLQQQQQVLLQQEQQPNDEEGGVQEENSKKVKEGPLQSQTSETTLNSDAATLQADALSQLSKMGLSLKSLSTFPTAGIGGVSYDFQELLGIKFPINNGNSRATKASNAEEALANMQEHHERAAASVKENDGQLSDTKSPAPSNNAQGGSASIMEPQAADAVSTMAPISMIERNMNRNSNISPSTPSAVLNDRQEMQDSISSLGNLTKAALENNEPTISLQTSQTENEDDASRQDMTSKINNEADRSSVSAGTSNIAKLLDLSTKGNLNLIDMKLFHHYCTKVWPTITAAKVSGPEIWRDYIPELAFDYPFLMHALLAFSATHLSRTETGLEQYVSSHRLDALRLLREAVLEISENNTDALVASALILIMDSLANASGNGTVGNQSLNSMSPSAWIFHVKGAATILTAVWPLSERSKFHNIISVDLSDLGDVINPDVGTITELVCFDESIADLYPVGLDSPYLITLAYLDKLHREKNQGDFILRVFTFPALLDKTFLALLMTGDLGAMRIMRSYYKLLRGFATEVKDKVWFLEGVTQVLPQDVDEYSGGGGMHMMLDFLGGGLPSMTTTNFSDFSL
Outline: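 Yeast transcription factors carrying a GST tag, as full-length proteins or DNA-binding domains, were produced by PURExpress in vitro transcription/translation. About 100-200 nM protein was applied to universal all-10-mer Agilent arrays, double-stranded by primer extension on fresh or once-stripped slides. Bound protein was detected with fluorescent anti-GST, and scans were normalised with masliner. The Universal PBM Analysis Suite gave each ungapped eight-base word, pooled with its reverse complement, an E-score, a modified Wilcoxon-Mann-Whitney statistic.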

Sequence | PBM E-score
AATAAGGC | -0.195
ATCCAGAA | 0.0453
ACGTTTTA | 0.188
GACTATAC | 0.319
TACCTTAA | 0.274
CAGTCAGA | -0.196
CCGGGGGC | -0.164
ACAGAGCT | -0.262
CCGTATAA | 0.483
AAATCGTT | 0.339
CCCTGCCA | -0.134
CCAGGCAG | -0.242
ACAAATAG | -0.0638
CACCCCAA | -0.0176
CCCGTTTA | 0.456
GGTCTATA | 0.123
CTTGCCAC | -0.166
GTTGGGCA | 0.0235
AGTGCTTA | -0.0919
AGTGGGCC | -0.0427
GGTATTGA | -0.0792
GCCTTTAC | 0.157

Sequence | PBM E-score
AATACACT | -0.0573
AAGTAGGT | -0.0897
GTGTAAAA | 0.0224
CTCCTATC | 0.0617
ATGCGGGA | -0.00313
ATTTTAAA | 0.094
ACTCTTTA | -0.0488
AATGCGTA | 0.213
GTGCGTGA | 0.0172
CTCGCGCC | -0.0598
AGCGACTA | 0.154
CAAGGCTA | -0.0665
ACATCCTA | -0.0708
CTTGCATC | -0.0814
ATGCCGCC | -0.0495
AAAAGACC | -0.189
CATGCAAC | -0.0312
CCAGCGAC | -0.2
CTAATAAC | 0.152
AGTATAGG | 0.125
ACGGAAAT | 0.178
GAACGCAA | 0.0539

Sequence | PBM E-score
CTTGCGAA | 0.175
ACTGCGTC | -0.0922
ATCGTCGG | 0.0867
ACTCGTTC | 0.46
TAGCACCA | -0.234
GCGAGTCA | 0.0768
CGCAACTC | -0.0467
AGGTTAGG | -0.175
AACAAAAA | 0.0558
ACCCAGGT | -0.336
AAAAGGTG | 0.028
ATACTAGG | -0.106
AAGGGCCC | -0.0289
ATCACGCG | 0.0976
AGCGTACA | 0.301
ATCATGGG | -0.284
CCCCCGAG | -0.32
AGGCCCGG | -0.38
AGAAGTTA | -0.122
CACAAGCA | -0.115
GGGCAACA | -0.101
GATGATAA | -0.0285

Sequence | PBM E-score
ATTCAAGG | -0.175
AACTGAGA | -0.219
CCCAATCG | -0.114
ACCAGCGT | -0.0198
ACCAATCC | -0.23
AAACTGGT | 0.0535
CCTTGAAC | 0.0625
GACACTGA | -0.132
GAGTGTAC | 0.256
GTAGCACA | -0.0827
CTCAAATA | 0.00825
GGTAAGAC | 0.027
ACAAGGCC | -0.102
AGCTGGAT | 0.00812
CTTATACA | 0.153
CTGATTTA | -0.0524
AACCGGAT | -0.0672
ATGTTCCG | -0.113
GATCATCC | -0.00145
ACAATTAG | -0.114
